# About 5,300 (4.4%) of roughly 120,000 compounds were called active. The inconclusive results got no clear call from the source; some entries with a clear call stand among them for comparison. Calls follow the shape of the dose curve; as a rule, active = well fitted inhibition curve with a large enough effect; inconclusive = small, poorly fitted or top-dose-only effect; inactive = no such curve, though single readings can be large or run the other way. Where the call is inconclusive, the potency comes from a doubtful curve fit.
# Assay: qHTS Primary assay for Inhibitors of Plasmodium falciparum Dd2 growth in vitro; also: nearly all actives have a fitted effect of over 65% in size;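 as to activity, negative = inhibition: plate controls were DMSO vehicle for no effect and reference drug for full effect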
# Settings: P. falciparum Dd2 growth, SYBR Green, 72 h; activity, negative = inhibition: at 28.9 µM (top of the series) unless noted; series mostly up to 28.9 µM
# Method in brief: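 Infected erythrocytes (Dd2, 0.3% parasitemia, 2.5% hematocrit final) are added to compound in RPMI-1640/Albumax II medium, grown 72 h at 37C in low oxygen, then lysed with saponin/Triton-X containing SYBR Green and read by fluorescence.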
# Potency is read from the fitted curve at half-maximal effect; tags tell the direction and shape of the fitted curve.
Compound,Potency,"activity, negative = inhibition"
Cc1ccc(NC(=O)N2CCC(CCNC(=O)c3ccco3)CC2)cc1F,"inconclusive: 3.98 µM [inhibitor, partial curve]",–
CNC(=O)[C@@H]1CN(C(=O)c2c[nH]c3ccccc23)C[C@H]1COC,"inconclusive: 0.224 µM [inhibitor, full curve]",–
CC(C)=CCC1(CO)CCCN(c2ncccc2C(=O)N2CCCC2)C1 (stereo not given),inactive,–
CCOc1ccc(CC(=O)Nc2ccc(-c3nnc4n3CCCC4)cc2)cc1,"inconclusive: 7.94 µM [inhibitor, partial curve, poor fit]",–
OCC1CCN(Cc2cc3cc4c(cc3nc2-c2ccc(Cl)cc2)OCO4)CC1,"inconclusive: 11.2 µM [inhibitor, partial curve, poor fit]",–
CN(C)S(=O)(=O)N1CCC(Oc2ccc(C(=O)NCCc3ccncc3)cc2)CC1,"inconclusive: 17.8 µM [inhibitor, single point]",–
CCC1=C(C(=O)OC)C(c2cc(OC)ccc2OC)N2C(CC(=O)NC3CC3)=CSC2=N1 (stereo not given),inactive,–
COCCNC(=O)C[C@@H]1C[C@H]2O[C@H](CN)[C@@H](O)[C@H]2O1,"inconclusive: 0.794 µM [inhibitor, full curve, poor fit]",–
COc1cccc(NS(=O)(=O)c2ccc3[nH]cc(C(=O)NC(C)c4ccccc4)c(=O)c3c2)c1 (stereo not given),"inconclusive: 20 µM [inhibitor, single point]",–
CCOC(=O)C1CCN(Cc2cn3c(-c4ccc(OC)cc4)nnc3s2)CC1,"inconclusive: 17.8 µM [inhibitor, single point]",–
COCCN1CCC(N2CCN(S(=O)(=O)c3cccc(Cl)c3)CC2)C1=O (stereo not given),"inconclusive: 7.08 µM [inhibitor, partial curve, poor fit]",–
CCOc1ccc2c(n1)CCN(C(=O)c1ccn(CC)n1)C2,inactive,–
COc1ccc(C)c2sc(N(Cc3cccnc3)C(=O)c3cccs3)nc12,"inconclusive: 14.1 µM [inhibitor, single point]",–
Cc1ccc(NC(=O)Cn2cc3c(n2)CCCC3)cc1Cl,"inconclusive: 10 µM [inhibitor, single point]",–
CCN1CCc2c(sc(-n3cccc3)c2C(C)NC(=O)Nc2ccc(C(=O)OC)cc2)C1 (stereo not given),"inconclusive: 17.8 µM [inhibitor, single point]",–
CN(C)C[C@@H]1CN(c2ccccn2)C[C@H]1NC(=O)CC1=CCCCC1,"inconclusive: 5.01 µM [inhibitor, single point]",–
COc1ccc(NC(=O)Cn2nc3c(cc2=O)CN(C(C)=O)CC3)cc1Cl,inactive,–
CC(C)c1nc(NCc2ccccc2Cn2cccn2)c2cnn(C)c2n1,"inconclusive: 11.2 µM [inhibitor, partial curve, poor fit]",–
Cc1ccc(-c2nnc(C3CN(C(=O)C4CCC4)CC34CCOCC4)o2)cc1 (stereo not given),inactive,–
CCOC(=O)c1ccc(N2C(=O)c3n[nH]c(-c4ccco4)c3C2c2ccccc2OC)cc1 (stereo not given),"inconclusive: 7.94 µM [inhibitor, partial curve, poor fit]",–
CC(C)CC(=O)NCC1Cn2cccc2C(=O)N1C (stereo not given),inactive,–
CC(=O)N1CCC(NC[C@H]2Cn3c(-c4ccc(F)cc4)cnc3CO2)CC1,inactive,–

Compound,Potency,"activity, negative = inhibition"
Cc1ccc(NC(=O)Cn2c(=O)n(Cc3ccccc3)c(=O)c3c(C)c(C(=O)N(C)C)sc32)c(C)c1,"inconclusive: 8.91 µM [inhibitor, partial curve, poor fit]",–
O=C(CSc1nc(Nc2ccccc2)c2ccccc2n1)c1ccc(Cl)cc1,"inconclusive: 17.8 µM [inhibitor, single point]",–
Cc1ccc(NC(=O)c2cnc(-c3ccccc3)nc2-c2ccncc2)c(Br)c1,"inconclusive: 1.41 µM [inhibitor, partial curve]",–
Cc1cc(C)cc(NC(=O)NCc2c(-n3cccc3)sc3c2CCCC3)c1,"inconclusive: 0.708 µM [inhibitor, full curve, poor fit]",–
COc1cccc(NC(=O)N2C[C@@H](F)C[C@H]2C(=O)N2CCCCC2)c1,inactive,–
Cc1cccc(CNC(=O)Cn2nc(C)c3nn(-c4ccc(Cl)cc4)c(C)c3c2=O)c1,"inconclusive: 0.316 µM [inhibitor, full curve, poor fit]",–
CN(C)CC(=O)N1CC(F)(F)C[C@H]1c1nc(-c2ccncc2)no1,"inconclusive: 17.8 µM [inhibitor, single point]",–
Cc1c(NC(=O)Cc2ccc(Cl)cc2)cccc1-c1nc2cccnc2s1,"inconclusive: 12.6 µM [inhibitor, single point]",–
Cc1nonc1CC(=O)N1CCCC(CNS(=O)(=O)c2cccs2)C1 (stereo not given),"inconclusive: 0.178 µM [inhibitor, full curve]",–
COc1ccc(Cl)cc1-c1ncc2c(n1)OCCN(Cc1ccc(F)cc1F)C2=O,"inconclusive: 22.4 µM [inhibitor, single point]",–
CCOc1ccc(CNC(=O)c2ccc(NC(=O)N3CCCCc4ccccc43)cc2)cc1,inactive,–
Cc1cc(C)n(-c2ccc(NC(=O)C3CCN(Cc4nnc(C)o4)CC3)cc2)n1,"inconclusive: 3.98 µM [inhibitor, single point]",–
O=C(C1CCCC1)N1Cc2ccccc2CC2(CCCN2Cc2cccnc2)C1 (stereo not given),"inconclusive: 14.1 µM [inhibitor, partial curve, poor fit]",–
COc1ccc(OC)c(S(=O)(=O)N2CCCCCCNC(=O)[C@@H]3CCCC[C@@H]32)c1,"inconclusive: 17.8 µM [inhibitor, single point]",–
O=C(NCCc1cccs1)c1ccc(Cn2c(SCc3cccc(F)c3)nc3cccnc32)cc1,"inconclusive: 10 µM [inhibitor, single point]",–
O=C1NC(C(=O)N2CCc3ccccc3C2)Cn2cccc21 (stereo not given),inactive,–
CCNc1nc2c(c(=O)n(C)c(=O)n2C)n1Cc1ccc(F)cc1,"inconclusive: 0.01 µM [inhibitor, full curve, poor fit]",–
O=C(O)[C@@H]1CN(Cc2ccccc2)C[C@@H]1C(=O)N1CCCCC1,inactive,–
Cc1ccc(CN2CCCCCNC(=O)[C@H]3C[C@H](C(=O)N4CCc5ccccc5C4)C[C@H]32)o1,"inconclusive: 3.16 µM [inhibitor, full curve]",–
COc1ccc(-c2cc3c(=O)n(CCNC(=O)c4ccc(C)s4)ccn3n2)cc1,"inconclusive: 1.41 µM [inhibitor, partial curve, poor fit]",–
Fc1cccc(CN2CCc3nc(Nc4ccc5c(c4)OCCO5)ncc3C2)c1F,"inconclusive: 10 µM [inhibitor, partial curve, poor fit]",–
CC(=O)N1CCN(c2csc3ccc(Cl)cc3c2=O)CC1,inactive,–

Compound,Potency,"activity, negative = inhibition"
CCc1nnc(CNC(=O)c2cn(CCN3CCNCC3)nn2)s1,inactive,–
CCCCOC(=O)c1ccc(NC(=O)c2ccc3c(c2)CCN3S(C)(=O)=O)cc1,"inconclusive: 7.94 µM [inhibitor, partial curve, poor fit]",–
CC[C@H]1CN(C(=O)c2ccnc(Cl)c2)CC[C@H]1CC(=O)NCc1cccnc1,inactive,–
CCCCc1ccc(NC(=O)Cn2cnc3c(oc4ccccc43)c2=O)cc1,–,inconclusive: -41.1% [inhibitor] [at 0.594 µM]
COc1ccc(C)cc1NC(=O)CSc1nc(=O)n(Cc2ccco2)c2c1CCC2,"inconclusive: 10 µM [inhibitor, single point]",–
O=[S+]1([O-])NC2(CCN(Cc3cccc(C(F)(F)F)c3)C2)COc2ncccc21 (stereo not given),–,inconclusive: -36.2% [inhibitor]
O=C1NC2(CCN(C(=O)c3ccc(Cl)cc3)CC2)COc2ccccc21,"inconclusive: 4.47 µM [inhibitor, partial curve, poor fit]",–
COc1ccc(OC)c(CCNC(=O)c2ccc3c(c2)N(Cc2ccccc2)CCS3)c1,inactive,–
Cc1cc(CNC(=O)c2cc(-c3ccco3)nc3c(Cl)cccc23)no1,active: 8.91 µM,–
Cc1cccc(N(C)S(=O)(=O)c2nnc(NC(=O)C(C)Oc3ccccc3)s2)c1 (stereo not given),"inconclusive: 0.01 µM [inhibitor, full curve, poor fit]",–
CC1(C(=O)NCc2cccs2)CCCCC(=O)N1 (stereo not given),inactive,–
COc1cc(CNC(=O)[C@H]2CCC[C@H]2NC(=O)c2ccc(OC)nc2)cc(OC)c1,"inconclusive: 7.08 µM [inhibitor, partial curve]",–
Cc1nc(CN2C[C@H](C(=O)Nc3ccccc3)C[C@@H]2c2ccc(F)cc2)cs1,"inconclusive: 0.794 µM [inhibitor, full curve]",–
CN1C(=O)c2ccccc2Sc2ccc(NC(=O)Cc3ccc(Cl)cc3)cc21,"inconclusive: 11.2 µM [inhibitor, partial curve]",–
Cc1ccc(C)c(OCc2nc3ccccc3n2C)c1,"inconclusive: 3.98 µM [inhibitor, single point]",–
CCCCN1CCN(C(=O)CCc2cc3ccc(C)cc3[nH]c2=O)CC1,"inconclusive: 2.24 µM [inhibitor, partial curve, poor fit]",–
Cn1cc(-c2ccccc2F)c2nc(COc3ccccc3)cn2c1=O,inactive,–
CCS(=O)(=O)N1C[C@@H](COC)[C@H](C(N)=O)C1,inactive,–
O=C(Nc1ccccc1OCc1cc(=O)n2ccccc2n1)Nc1ccccc1C(F)(F)F,"inconclusive: 0.01 µM [inhibitor, full curve, poor fit]",–
Cc1ccc(NC(=O)c2cc3n(n2)CC(c2ccc4c(c2)OCO4)OC3)cc1C (stereo not given),inactive,–
O=c1c2sc3ccccc3c2n(Cc2cccc(Cl)c2)c(=O)n1Cc1ccccc1,"inconclusive: 10 µM [inhibitor, single point]",–

# — PubChem BioAssay AID1347417 (National Center for Advancing Translational Sciences (NCATS), 2020)
